# According to the supplement of paper PMC3334620:
# In all, about 33,000 sequences were measured (“E-score (-0.5 to 0.5)”: median about -0.035, highest 2% from about 0.34 on). This is one part of the list.
# Molecular target: T1, Mot3 (UniProt P54785)
# T1 sequence: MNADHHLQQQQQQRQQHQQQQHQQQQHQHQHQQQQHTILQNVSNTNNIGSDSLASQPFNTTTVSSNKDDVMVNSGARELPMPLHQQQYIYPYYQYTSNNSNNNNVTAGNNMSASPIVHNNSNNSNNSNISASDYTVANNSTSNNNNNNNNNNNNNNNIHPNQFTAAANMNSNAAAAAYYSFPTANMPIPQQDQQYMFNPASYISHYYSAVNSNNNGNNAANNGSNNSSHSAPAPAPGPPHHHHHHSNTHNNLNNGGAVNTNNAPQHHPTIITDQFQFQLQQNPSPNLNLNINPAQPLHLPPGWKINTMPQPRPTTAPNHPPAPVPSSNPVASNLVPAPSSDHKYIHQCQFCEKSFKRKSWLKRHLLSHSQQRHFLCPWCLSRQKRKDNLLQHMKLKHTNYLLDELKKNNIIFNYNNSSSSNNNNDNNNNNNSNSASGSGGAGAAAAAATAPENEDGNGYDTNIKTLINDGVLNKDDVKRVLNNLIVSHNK
# Experiment: PBM E-score (8-mer binding enrichment) (E-score (-0.5 to 0.5)); higher = stronger / more preferred TF binding; most listed sequences are background and not binding sites
# Settings: protein concentration: 200 nM; construct: GST-full length
# Description: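 Universal 'all 10-mer' protein binding microarrays (Agilent AMADID 015681) probed with GST-tagged S. cerevisiae TFs (full-length or DBD) made by in vitro transcription/translation (PURExpress), about 100-200 nM. Bound TF was detected with fluorescent anti-GST. Each ungapped 8-mer (which stands for itself and its reverse complement) is scored by the PBM enrichment score (E-score), a modified Wilcoxon-Mann-Whitney statistic from -0.5 to +0.5, computed with the Universal PBM Analysis Suite. Scale: above 0.35 generally sequence-specific binding.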
row,Sequence,PBM E-score
1,AACAATGG,0.019
2,AACTCAAT,-0.0215
3,CTTTGCGA,-0.125
4,AAGGCCTA,-0.043
5,ACCCTCTG,-0.219
6,ACTTGACG,0.134
7,GAAAGGTC,-0.0526
8,GCATGTTA,0.385
9,CGTGTTAG,0.354
10,AGGACGAG,-0.152
11,ACTCATAT,-0.0444
12,AAAGTGGA,-0.0636
13,CGCGCTTA,0.143
14,CATTTACA,0.363
15,CTAGTTTA,0.0483
16,AATTGTGT,0.2
17,GAGAGGCC,-0.158
18,GGTTGATA,-0.00089
19,GTACGTGA,0.0568
20,AGGAAGTG,-0.0976
21,CCGACACC,-0.142
22,ATGAAATG,-0.183

row,Sequence,PBM E-score
1,GGCTGAAC,-0.0542
2,GCGTCTTA,-0.0476
3,ATACGGTG,-0.0532
4,AACTACCT,0.141
5,CCGGTAAC,0.00834
6,GCGCAACA,0.106
7,ACGACGTA,0.207
8,CTAAAGCC,-0.0284
9,ATAAGTTG,-0.00969
10,ATCAACAA,0.224
11,ACGATGCC,-0.0597
12,CCCTGACG,-0.273
13,GAACCATC,-0.0773
14,CACGCGGA,0.118
15,ATGTACAC,0.338
16,CCCGGGGC,-0.281
17,AACTCAGT,-0.0694
18,GCGGATAA,0.0223
19,GACCAAAA,-0.0431
20,AATAGCTA,0.078
21,GGGGTAGA,-0.0141
22,GCTCTTAA,0.0678

row,Sequence,PBM E-score
1,CCTGTGAA,0.254
2,GATAGTCA,-0.0444
3,GTATGGAA,-0.156
4,TACACAAA,0.369
5,CCACCCAG,-0.124
6,CCGCCAAA,-0.179
7,AACTACAC,0.31
8,CATATTCC,-0.102
9,CAGGTACA,0.406
10,GGGCTCCA,-0.279
11,ATCTATAA,-0.0231
12,AAAGCATA,0.13
13,CTTCGAGC,0.117
14,AAAATCTC,0.109
15,ATTCGCCA,-0.256
16,GCCAAGAC,-0.186
17,CTGACCAC,-0.141
18,AGCCCTAG,0.0768
19,GCTAACCA,-0.114
20,GGATTCAC,-0.0772
21,ATTGGCTG,-0.202
22,AGGCCTCC,-0.166

row,Sequence,PBM E-score
1,CGGCTCAA,-0.102
2,TCACCTCA,0.031
3,TATTGTAA,0.215
4,CGCCGGGC,-0.289
5,GGAGGCCC,-0.266
6,AAGTCGCT,-0.108
7,GAGCTTAC,0.0803
8,CGTGATGA,-0.115
9,ATGCTAAT,0.115
10,CATTAAAA,0.242
11,AATGTTGC,0.145
12,ATAGCAAT,0.0903
13,AAGTTGCG,0.041
14,CGGGGTTA,-0.126
15,GGTTGCGA,-0.184
16,AGATTGGC,-0.163
17,AAGGCCGC,-0.157
18,CCCGCTCC,-0.381
19,TATCGAGA,-0.0588
20,AGAGCAGG,0.018
21,GGTAGCCA,0.0673
22,ACAAGACT,0.0101

row,Sequence,PBM E-score
1,CCCAGGGG,-0.322
2,AAGCCTCC,-0.243
3,GTGACAAC,-0.104
4,CTTTCATA,0.0855
5,CAGGATAC,-0.0272
6,TAGGGAAA,-0.0198
7,CTGTGTAA,0.41
8,AATCATAT,0.0169
9,ACGGTTCG,-0.151
10,GAAAGACC,-0.15
11,CGACTCTC,-0.347
12,CCGGCGCC,-0.232
13,AAAATAGG,0.267
14,GAGATGAA,-0.0504
15,GCTAGAGA,-0.211
16,ATAGAGTG,-0.152
17,CTATATCA,-0.111
18,AAATTCGG,-0.12
19,GGTGGACA,-0.0311
20,CTTGATTA,0.0272
21,AGATGAAC,0.208
